Measured values as given in the supplement of paper PMC12067230.
Single values of this set are uncertain.

Assay: amyloid nucleation score relative to library mode (yeast Sup35 reporter selection) (log enrichment difference); higher = more amyloid nucleation; sequences are the first 22 residues of the Bri2 peptide extended by up to 12 random residues
Details: random library (experiment): 1;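 active = nucleation score significantly above 0 at FDR 0.05; inactive = not significantly above 0 or absent from output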
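Also: [psi-pin-] Saccharomyces cerevisiae expressing SupN fusions, induced by 100 µM Cu2SO4, selected 7 d at 30 °C without adenine and uracil, scored by deep sequencing of output versus input.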

Row | Sequence | amyloid nucleation score
1 | EASNCFAIRHFENKFAVETLICLVSDRSTAEQCL | inactive
2 | EASNCFAIRHFENKFAVETLICRHGYWVNSSRWE | 1.95
3 | EASNCFAIRHFENKFAVETLICLRVTIWPSSMCI | inactive
4 | EASNCFAIRHFENKFAVETLICRYRITPFLTGPH | inactive
5 | EASNCFAIRHFENKFAVETLICRNAQDKSGAVSM | inactive
6 | EASNCFAIRHFENKFAVETLICYMKA | inactive
7 | EASNCFAIRHFENKFAVETLICHTEYCWIGSYGM | inactive
8 | EASNCFAIRHFENKFAVETLICGQPELSMSVKVS | inactive
9 | EASNCFAIRHFENKFAVETLICTVTGNDCNNFRG | -0.187
10 | EASNCFAIRHFENKFAVETLICVVRP | inactive
11 | EASNCFAIRHFENKFAVETLICLF | 7.02
12 | EASNCFAIRHFENKFAVETLICKLGCLERHYGTS | 5.95
13 | EASNCFAIRHFENKFAVETLICGQGGGHGSYESL | 1.55
14 | EASNCFAIRHFENKFAVETLICYMIALRQLAPIR | inactive
15 | EASNCFAIRHFENKFAVETLICRLLSLCRYVTWF | inactive
16 | EASNCFAIRHFENKFAVETLICCLVGI | 4.43
17 | EASNCFAIRHFENKFAVETLICPVLNW | inactive
18 | EASNCFAIRHFENKFAVETLICGVSALLQGRVMW | inactive
19 | EASNCFAIRHFENKFAVETLICLSLCAAIHNWLD | -0.627
20 | EASNCFAIRHFENKFAVETLICRCLLLSRFFCHI | 3.17
21 | EASNCFAIRHFENKFAVETLICRFESVNYQSVWA | inactive
22 | EASNCFAIRHFENKFAVETLICRRSG | inactive
23 | EASNCFAIRHFENKFAVETLICWASSDEFAARSR | 2.91
24 | EASNCFAIRHFENKFAVETLICPYKTRMRQFIQS | -0.0525
25 | EASNCFAIRHFENKFAVETLICGTSWSRCATYST | inactive
26 | EASNCFAIRHFENKFAVETLICNLGKALVYNNAR | 6.29
27 | EASNCFAIRHFENKFAVETLICYG | inactive
28 | EASNCFAIRHFENKFAVETLICPFTHCSSFEECS | 2.45

Row | Sequence | amyloid nucleation score
29 | EASNCFAIRHFENKFAVETLICVRYRATCVDLAV | inactive
30 | EASNCFAIRHFENKFAVETLICDATWLDPVVGVW | inactive
31 | EASNCFAIRHFENKFAVETLICRAEALQARRRAA | -0.0242
32 | EASNCFAIRHFENKFAVETLICGWLPFL | 6.75
33 | EASNCFAIRHFENKFAVETLICVYVGA | inactive
34 | EASNCFAIRHFENKFAVETLICRTYDESQSARIG | inactive
35 | EASNCFAIRHFENKFAVETLICTASCAGFLCEPS | 3.44
36 | EASNCFAIRHFENKFAVETLICMFAYSNDRLMR | inactive
37 | EASNCFAIRHFENKFAVETLICRVSDVWFMVAGA | inactive
38 | EASNCFAIRHFENKFAVETLICPLMVTLRVIFRV | inactive
39 | EASNCFAIRHFENKFAVETLICGK | inactive
40 | EASNCFAIRHFENKFAVETLICNERCRVRIICST | inactive
41 | EASNCFAIRHFENKFAVETLICMTFCFTPLTVWS | 3.24
42 | EASNCFAIRHFENKFAVETLICYSLDNILMFMLP | 2.52
43 | EASNCFAIRHFENKFAVETLICYVACYWVNFMLR | inactive
44 | EASNCFAIRHFENKFAVETLICKVLARGELTTCL | inactive
45 | EASNCFAIRHFENKFAVETLICVDIRSRSMSQ | 0.159
46 | EASNCFAIRHFENKFAVETLICVSARWCFGAAES | 4.18
47 | EASNCFAIRHFENKFAVETLICLRNGLNNQLCVG | inactive
48 | EASNCFAIRHFENKFAVETLICTEAEWFTYFRYV | -0.345
49 | EASNCFAIRHFENKFAVETLICNG | inactive
50 | EASNCFAIRHFENKFAVETLICPWHGPW | inactive
51 | EASNCFAIRHFENKFAVETLICWRDTGRPAAGRE | 2.17
52 | EASNCFAIRHFENKFAVETLICAAANYKRMRDEW | 1.01
53 | EASNCFAIRHFENKFAVETLICLHLF | 6.25
54 | EASNCFAIRHFENKFAVETLICTVARQTPILQRP | inactive
55 | EASNCFAIRHFENKFAVETLICTNVVPESSIAGV | 3.29

Same assay, conditions: random library (experiment): 2

Row | Sequence | amyloid nucleation score
56 | EASNCFAIRHFENKFAVETLICLSIEDYFLGCLE | 0.0408
57 | EASNCFAIRHFENKFAVETLICIRYCMTVVMCGG | -0.00995
58 | EASNCFAIRHFENKFAVETLICILHVGQVCLRWT | -0.0392
59 | EASNCFAIRHFENKFAVETLICNIVARVSGTGNW | 2.59
60 | EASNCFAIRHFENKFAVETLICCSSLLHFRGYVI | 4.35
61 | EASNCFAIRHFENKFAVETLICCRKLVYVMGFQG | inactive
62 | EASNCFAIRHFENKFAVETLICEHFYKFGCCIYD | 5.16
63 | EASNCFAIRHFENKFAVETLICRSG | inactive
64 | EASNCFAIRHFENKFAVETLICVLV | 7.04
65 | EASNCFAIRHFENKFAVETLICLLKN | inactive
66 | EASNCFAIRHFENKFAVETLICFDIYIYAITGIW | inactive
67 | EASNCFAIRHFENKFAVETLICYGSMVHVEHSVI | 7.99
68 | EASNCFAIRHFENKFAVETLICGDDTTCRWEW | inactive
69 | EASNCFAIRHFENKFAVETLICGSQLSKSNCWNS | 3
70 | EASNCFAIRHFENKFAVETLICFNVGIWNVCMPN | 8.08
71 | EASNCFAIRHFENKFAVETLICCFQIF | 8.47
72 | EASNCFAIRHFENKFAVETLICALDFLAPQAKVL | inactive

Row | Sequence | amyloid nucleation score
73 | EASNCFAIRHFENKFAVETLICAEGNMYLGGFVY | inactive
74 | EASNCFAIRHFENKFAVETLICVNKFYCYPYMFA | 4.48
75 | EASNCFAIRHFENKFAVETLICEEMGYLDPICER | 3.02
76 | EASNCFAIRHFENKFAVETLICESVNSAILCSGC | inactive
77 | EASNCFAIRHFENKFAVETLICCYCVMSGFCLGF | -0.438
78 | EASNCFAIRHFENKFAVETLICYLYLRACGVYLQ | inactive
79 | EASNCFAIRHFENKFAVETLICGWVWIYSTLLYG | inactive
80 | EASNCFAIRHFENKFAVETLICLKNELGR | inactive
81 | EASNCFAIRHFENKFAVETLICLPCGHDQ | 5.81
82 | EASNCFAIRHFENKFAVETLICTCPRMVIFIFQS | inactive
83 | EASNCFAIRHFENKFAVETLICVWTNSCKVFSCT | 5.54
84 | EASNCFAIRHFENKFAVETLICFK | 1.16
85 | EASNCFAIRHFENKFAVETLICCGNMYLSPYTCW | 8.12
86 | EASNCFAIRHFENKFAVETLICMRLS | inactive
87 | EASNCFAIRHFENKFAVETLICLDYSAHVSSNMN | 1.86
88 | EASNCFAIRHFENKFAVETLICEKLCDVYWLYWC | inactive
89 | EASNCFAIRHFENKFAVETLICAYFELNICVRLC | 3.07

Same assay, conditions: random library (experiment): 3

Row | Sequence | amyloid nucleation score
90 | EASNCFAIRHFENKFAVETLICMLQSPLHTVSIW | inactive
91 | EASNCFAIRHFENKFAVETLICNPVIRSNTCWLY | inactive
92 | EASNCFAIRHFENKFAVETLICTQQYVYVPLPSC | inactive
93 | EASNCFAIRHFENKFAVETLICELYMEVGEPQTV | inactive
94 | EASNCFAIRHFENKFAVETLICAFVRELHRYHKM | inactive
95 | EASNCFAIRHFENKFAVETLICHMWN | 7.78
96 | EASNCFAIRHFENKFAVETLICRLVYIVDRRAHC | inactive
97 | EASNCFAIRHFENKFAVETLICRDMRAYTIRMDP | -0.5
98 | EASNCFAIRHFENKFAVETLICFYRHCMKDHLMP | inactive
99 | EASNCFAIRHFENKFAVETLICVYVQWGPSGGSG | inactive
100 | EASNCFAIRHFENKFAVETLICLMCFVAVFRLSV | 0.249
101 | EASNCFAIRHFENKFAVETLICWFRAPCKDTILM | inactive
102 | EASNCFAIRHFENKFAVETLICAPFPTSRRMRGT | inactive
103 | EASNCFAIRHFENKFAVETLICCNDGPLRPSFCR | 4.41
104 | EASNCFAIRHFENKFAVETLICDRTCWSKSGLMG | 0.798
105 | EASNCFAIRHFENKFAVETLICLSMLVRWGGSAR | inactive

Row | Sequence | amyloid nucleation score
106 | EASNCFAIRHFENKFAVETLICVLGMAVLHSR | inactive
107 | EASNCFAIRHFENKFAVETLICRRCVGEVLEEQL | 0.649
108 | EASNCFAIRHFENKFAVETLICALWLLGYTWAWA | 0.788
109 | EASNCFAIRHFENKFAVETLICFAPRVSRGRRTP | inactive
110 | EASNCFAIRHFENKFAVETLICVRFRMLVCVTSG | inactive
111 | EASNCFAIRHFENKFAVETLICVHWCFGDIYLMS | 1.43
112 | EASNCFAIRHFENKFAVETLICPLWDRSHTGSVV | inactive
113 | EASNCFAIRHFENKFAVETLICVRMLR | 1.58
114 | EASNCFAIRHFENKFAVETLICTMVCPCDTHLRM | 7.81
115 | EASNCFAIRHFENKFAVETLICGRFVP | inactive
116 | EASNCFAIRHFENKFAVETLICVSSNPVLGLACW | inactive
117 | EASNCFAIRHFENKFAVETLICARSVNGRFRWVR | 3.45
118 | EASNCFAIRHFENKFAVETLICLETWYVSRRKVW | inactive
119 | EASNCFAIRHFENKFAVETLICVTGMFKVEASTW | inactive
120 | EASNCFAIRHFENKFAVETLICLIMLPLMCSMWG | inactive
